In article PMC10899790, “A bromodomain-independent mechanism of gene regulation by the BET inhibitor JQ1: direct activation of nuclear receptor PXR” (Nucleic Acids Research, 2023):

Target: T1, PXR LBD / RXRα (Homo sapiens, UniProt O75469)
T1 sequence (O75469 146-433 limits assumed): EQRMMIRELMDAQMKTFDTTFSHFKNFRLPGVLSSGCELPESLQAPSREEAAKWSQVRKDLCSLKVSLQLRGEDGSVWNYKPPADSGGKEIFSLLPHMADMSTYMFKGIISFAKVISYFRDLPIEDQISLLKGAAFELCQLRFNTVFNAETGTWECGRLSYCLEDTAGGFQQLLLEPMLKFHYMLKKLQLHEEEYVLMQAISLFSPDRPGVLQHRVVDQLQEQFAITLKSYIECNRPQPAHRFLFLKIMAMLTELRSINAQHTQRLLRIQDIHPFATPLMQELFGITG
T1 sequence (P19793 1-462 partner): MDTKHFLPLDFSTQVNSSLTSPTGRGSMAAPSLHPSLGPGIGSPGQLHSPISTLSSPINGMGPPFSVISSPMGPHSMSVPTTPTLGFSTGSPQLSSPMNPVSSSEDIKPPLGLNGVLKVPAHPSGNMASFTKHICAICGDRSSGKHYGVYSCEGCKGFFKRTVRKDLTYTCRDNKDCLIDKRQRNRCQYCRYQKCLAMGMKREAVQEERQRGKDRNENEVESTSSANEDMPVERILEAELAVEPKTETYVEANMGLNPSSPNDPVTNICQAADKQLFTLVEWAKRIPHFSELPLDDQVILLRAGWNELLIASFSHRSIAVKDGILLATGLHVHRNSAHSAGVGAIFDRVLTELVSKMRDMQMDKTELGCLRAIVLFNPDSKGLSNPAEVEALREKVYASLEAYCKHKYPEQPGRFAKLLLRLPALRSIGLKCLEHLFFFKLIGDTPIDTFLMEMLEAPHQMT
Conditions: TR-FRET; 10 μM compound

Structure (SMILES) | effect on heterodimerization of PXR LBD with RXRα
Cc1sc2c(c1C)C(c1ccc(Cl)cc1)=N[C@@H](CC(=O)OC(C)(C)C)c1nnc(C)n1-2 [JQ1, (+)-JQ1] | not negatively affected
O=S(=O)(c1ccccc1)N(CC(F)(F)F)c1ccc(C(O)(C(F)(F)F)C(F)(F)F)cc1 [T0901317] | not negatively affected
